Among all 110,000 compounds or so, about 40 (0.04%) were called active. This list was built around the results that the source calls inconclusive (neither active nor inactive); the mix of calls is not that of the screen. Calls come from the whole dose curve; as a rule, active = well fitted curve in the direction sought with a large enough effect in the signal ratio (not every such curve was filed as active); inconclusive = small, poorly fitted or top-dose-only effect, or a change in a side signal; inactive = flat fitted curve, though single readings scatter; the % refers to the signal ratio. Where the call is inconclusive, the potency comes from a doubtful curve fit.
Test: IkB Signaling;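 for IkBa stabilization activation: 0% = basal untreated cells and 100% = reference inhibitor full response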
Conditions: ABC-DLBCL IkBa-CBG/CBR dual luciferase ratio (green luciferase fused to IkBa over red control in OCI-Ly3 lymphoma cells), 4 h; IkBa stabilization activation: at 57.1 µM (top of the series), scaled: untreated 0%, proteasome inhibitor 100% unless noted
Procedure, shortened: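 Curves were fitted separately to fusion (green), unfused (red) and ratio luminescence, then classed by r2, magnitude and activity. Cells: OCI-Ly3, 4 h compound plus doxycycline at 37C; 10 uM MG-132 defined full response.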
Potency is the fitted concentration of half-maximal effect.

Row | Structure (SMILES) | IkBa stabilization activation | Potency
1 | CCn1c(CN2CCOCC2)nc2cc(NC(=O)c3ccc([N+](=O)[O-])cc3)ccc21 | inactive | –
2 | CCOc1ccc(-c2nc(SCC(=O)NCCCOC)c(-c3ccccc3)[nH]2)cc1 | inconclusive: 16.9% [signal inhibitor] | –
3 | COc1cc(C(=O)OCc2cc3ccccc3[nH]c2=O)cc(OC)c1OC | inactive | –
4 | COc1ccc(C(=O)Nc2cc(C)on2)cc1 | inactive | –
5 | CSc1ccc(CC2C(=O)Nc3ccccc32)cc1 (centres undefined) | inconclusive: 3.94% [signal inhibitor] | –
6 | O=C(CS(=O)(=O)c1cccc2nsnc12)Nc1cc(F)ccc1F | inconclusive: -1.58% [signal inhibitor] | –
7 | O=C(Cc1ccccc1F)N1CCC(c2nc3c(nnn3Cc3ccc(F)cc3)c(=O)[nH]2)CC1 | inconclusive: 0.694% [signal inhibitor] | –
8 | O=C(NCc1cccnc1)NC1(C(F)(F)F)Oc2ccc(Cl)cc2O1 (centres undefined) | – | inconclusive: 25.1 µM [rising, partial curve]
9 | CCCOc1ccc(NC(=O)CC2C(=O)N(c3ccc(C)cc3)C(=O)N2Cc2cccc(OC)c2)cc1 (centres undefined) | inconclusive: -1.72% [signal inhibitor] | –
10 | CCOC(=O)C1CCN(c2c(C(=O)c3ccc(C)cc3)cnc3ccc(F)cc23)CC1 | inconclusive: -1.32% [signal inhibitor] | –
11 | O=C(C1CC1)N1CCc2cc(Br)cc(S(=O)(=O)N3CCCCCC3)c21 | inconclusive: 5.66% [signal inhibitor] | –
12 | CC1CCc2nc(NC(=O)C3CCCO3)sc2C1 (centres undefined) | – | inconclusive: 25.1 µM [signal inhibitor, partial curve]
13 | CN1C(=O)C2C=CC1C1C(=O)N(c3ccccc3)C(=O)C21 (centres undefined) | inactive | –
14 | O=C(NCCN1CCOCC1)c1cc2c(=O)n3ccccc3nc2n1Cc1ccccc1 | inactive | –
15 | Cc1cc(C)n2nc(SCC(=O)Nc3ccc(F)cc3)nc2n1 | inactive | –
16 | O=C(O)CCc1ccc(-c2ccccc2)[nH]1 | inactive: -5.73% [at 11.4 µM, scaled: untreated 0%, proteasome inhibitor 100%] | –
17 | O=C(NCCCN1CCOCC1)c1cc(-c2ccc(Cl)cc2)on1 | inconclusive: 11.9% [signal inhibitor] | –
18 | CC1CCC2(CC1)N=C(c1ccccc1)C(=O)N2CC(=O)Nc1ccc(F)c(Cl)c1 (centres undefined) | inconclusive: 6.42% [signal inhibitor] | –
19 | Cc1nc2ncnn2c(C)c1CCC(=O)N1CCN(c2cccc(Cl)c2)CC1 | inconclusive: 0.672% [signal inhibitor] | –
20 | CC(=O)CC1OC(=O)C(Br)=C1NCc1ccccc1 (centres undefined) | – | inconclusive: 3.98 µM [rising, partial curve]
21 | COc1cccc(CNC(=O)c2ccc3c(c2)nc2n3CCCCC2)c1OC | inactive | –
22 | Cc1oc2ncnc(N3CCCCC3)c2c1C(=O)Nc1cccc(Cl)c1C | inconclusive: 0.575% [signal inhibitor] | –
23 | CCNc1nc(C)nc2c1oc1ccccc12 | inactive | –

Row | Structure (SMILES) | IkBa stabilization activation | Potency
24 | Cc1nc2cc(-c3ccccc3)nn2c(C)c1CCC(=O)NCCc1ccccc1 | inconclusive: 10.8% [signal inhibitor] | –
25 | Cc1ccc2[nH]c(CSc3nnc(NC(=O)COc4ccccc4C)s3)cc(=O)c2c1 | inactive | –
26 | COc1ccc(Nc2cc(C(=O)NCCCN(C)c3ccccc3)c3ccccc3n2)c(OC)c1 | inconclusive: -0.588% [signal inhibitor] | –
27 | Cc1cccc(CCNC(=O)c2ccc3c(c2)nc2n3CCOC2)c1 | inactive | –
28 | CCOC(=O)c1ccc(Nc2nc(N)c3cc(OC)c(OC)cc3n2)cc1 | inconclusive: 9.15% [signal inhibitor] | –
29 | Cc1c(Cl)cccc1-n1c(SCC(=O)NCc2ccccc2)nc2n[nH]c(C)c2c1=N | inconclusive: 2.26% [signal inhibitor] | –
30 | COc1ccc(-c2c3c(=O)n(C)c(=O)n(C)c3c3nnc4ccccc4n23)cc1 | inactive | –
31 | CCn1c2ccccc2c2nnc(SCC(=O)NCc3cccs3)nc21 | inactive | –
32 | CCOC(=O)N1CCN(C(=O)c2ccc3nc(N4CCC(C)CC4)sc3c2)CC1 | inactive | –
33 | CCCOc1ccc(CNC(=O)C(C)n2nc(C)n3c(cc4occc43)c2=O)cc1 (centres undefined) | inconclusive: 1.83% [signal inhibitor] | –
34 | O=C(CSc1nnnn1C1CC2CCC1C2)Nc1ccnc2ccccc12 (centres undefined) | inconclusive: 4.78% [signal inhibitor] | –
35 | CC1CCN(C(=O)c2ccccc2NC(=O)c2nsc3ccccc23)CC1 | inconclusive: -1.12% [signal inhibitor] | –
36 | O=C(CC(Nc1ccc(F)cc1)C(=O)O)c1ccccc1 (centres undefined) | – | inconclusive: 15.8 µM [signal inhibitor, partial curve]
37 | COc1ccc(-n2c(SCC(=O)Nc3cc(C)cc(C)c3)nc3c(oc4ccccc43)c2=O)cc1 | inactive | –
38 | COc1ccccc1N1CCN(C(=O)c2nc(-c3ccc(C)cc3)n3c2CCCCC3)CC1 | – | inconclusive: 12.6 µM [signal inhibitor, partial curve]
39 | CCC(C)c1ccc2oc(-c3ccc(NC(=O)Cn4cnc5c(=O)n(C)c(=O)n(C)c54)cc3)nc2c1 (centres undefined) | – | inconclusive: 5.01 µM [signal inhibitor, partial curve]
40 | COc1ccc(CNC(=O)CCc2c(C)nn(-c3ccc(N4CCCC4)nn3)c2C)c(OC)c1 | inactive | –
41 | O=C(NC1CC1)c1ccc2c(c1)ncn2C1CCCC1 | – | inconclusive: 15.8 µM [signal inhibitor, partial curve]
42 | Cc1ccc(NC(=O)c2c(C)oc3ccc(O)c(CN4CCCCC4)c23)cc1 | inconclusive: -1.36% [signal inhibitor] | –
43 | Cn1c(C(=O)N2CCCC(C(=O)NCCCSC3CCCCC3)C2)cc2sccc21 (centres undefined) | inconclusive: 15.3% [signal inhibitor] | –
44 | O=C(CSc1nnc(-c2cccs2)o1)N1CCCCC1 | – | inconclusive: 20 µM [signal inhibitor, partial curve]
45 | Cc1cc(C)c(/C=C/c2onc(C)c2S(=O)(=O)N2CCC(C(=O)NCC(C)c3ccccc3)CC2)c(C)c1 (centres undefined) | inconclusive: -0.0343% [signal inhibitor] | –
46 | Cc1ccccc1NS(=O)(=O)c1cccc(-c2nnc(-c3ccccc3)o2)c1 | inconclusive: 4.43% [signal activator] | –

Row | Structure (SMILES) | IkBa stabilization activation | Potency
47 | CCSc1sccc1C1C(C#N)=C(N)N(c2cccnc2)C2=C1C(=O)CCC2 (centres undefined) | inactive | –
48 | Cc1nn(C)c2c1c(-c1ccccc1)cc(=O)n2C(C)C(=O)NCCc1ccc(Cl)cc1 (centres undefined) | inconclusive: 1.98% [signal inhibitor] | –
49 | COc1ccc(-c2ccc3c(N)c(C(=O)Nc4ccc(C)cc4C)sc3n2)cc1OC | inactive | –
50 | COc1ccc(S(=O)(=O)NCC(c2ccco2)N2CCN(c3ccccc3F)CC2)cc1OC (centres undefined) | inconclusive: 0.218% [signal inhibitor] | –
51 | N[C@@H](CO)C(=O)O | inactive | –
52 | CS(=O)(=O)N1CCC(C(=O)Nc2c(F)cccc2F)CC1 | inconclusive: 8.75% [signal activator] | –
53 | CC(C)=C[C@H]1[C@@H](C(=O)Oc2ccccc2C(C)C)C1(C)C | inactive: 0.0265% [at 11.4 µM, scaled: untreated 0%, proteasome inhibitor 100%] | –
54 | Cc1cc(C)cc(NC(=O)CSc2nnc(COc3ccccc3Cl)o2)c1 | – | inconclusive: 25.1 µM [signal inhibitor, single point]
55 | Cc1ccc(C)c(NC(=O)CCCN2C(=O)COc3ccc(C)cc32)c1 | inconclusive: 1.63% [signal inhibitor] | –
56 | CC(C)(C)OC(=O)N1CCC(c2c(C(=O)Nc3cccc(C(F)(F)F)c3)cnn2-c2ccc(F)cc2F)CC1 | inconclusive: 4.34% [signal inhibitor] | –
57 | COc1ccc(C)cc1NC(=O)c1cc2c(s1)-c1ccccc1SC2 | inconclusive: 5.41% [signal inhibitor] | –
58 | O=c1c(-c2ccc3c(c2)OCCO3)coc2cc(O)cc(O)c12 | inconclusive: -0.991% [signal inhibitor] | –
59 | CC(=O)Nc1cc(C(=O)NCc2ccc(F)cc2)ccc1Sc1ccc(C)cc1 | inconclusive: 1.64% [signal inhibitor] | –
60 | Cc1nn(-c2ccccc2)c(-n2cccc2)c1C(=O)NCc1ccccc1Cl | inconclusive: 1.56% [signal inhibitor] | –
61 | O=C1CN(C(=O)c2ccc(Cl)cc2Cl)C(c2ccc(F)cc2)c2cc(F)ccc2N1 (centres undefined) | inconclusive: 4.9% [signal inhibitor] | –
62 | CCOC(=O)C1CCN(C(=O)CSc2n[nH]c(-c3ccccc3Cl)n2)CC1 | inconclusive: 0.373% [signal inhibitor] | –
63 | CN1C(=O)CSc2ccc(NC(=O)N3CCc4ccccc43)cc21 | inconclusive: 2.4% [signal inhibitor] | –
64 | Cc1ccc(CCNC(=O)CN2C(=O)COc3ccc(S(=O)(=O)N4CCCCC4)cc32)cc1 | inconclusive: 1.57% [signal inhibitor] | –
65 | Cc1ccc(C(CC(=O)NCC2(c3ccccc3)CCCC2)c2ccccc2)c(O)c1 (centres undefined) | inconclusive: 7.68% [signal inhibitor] | –
66 | Cc1ccc(Nc2nnc(-c3ccc(C)c(S(=O)(=O)N4CCCCC4)c3)c3ccccc23)cc1 | – | inconclusive: 25.1 µM [signal inhibitor]
67 | CCOc1ccc2c(c1)[C@@H]1C=CC[C@@H]1[C@H](c1ccccc1Cl)N2 | inconclusive: 2.63% [signal inhibitor] | –
68 | CC(C)(C)OC(=O)N1CCC(c2c(C(=O)Nc3ccc4c(c3)OCCO4)cnn2-c2ccc(F)cc2)CC1 | inconclusive: -1.32% [signal inhibitor] | –
69 | Cc1cc(Cc2cc(C)c(N)cc2N)c(N)cc1N | inactive: -0.951% [at 11.4 µM, scaled: untreated 0%, proteasome inhibitor 100%] | –

— PubChem BioAssay AID445 (National Center for Advancing Translational Sciences (NCATS), 2006)
